Out of some 52,000 compounds screened, about 4,300 (8.3%) were called active. Rule as the data show it: active = survival mostly below about 52% (no sharp cut-off); inactive = mostly above about 56%. This is one part of the list.

Here are results for 91 molecules from PubChem BioAssay AID463173 (ICCB-Longwood Screening Facility, Harvard Medical School, 2010).

This experiment relates to DeltatarO mutant. The experiment can be described thus: S. aureus survival, RN4220 and DeltatarO strains – OD600, teichoic acid synthesis inhibitors, primary screen (AID 463173). The settings on record: S. aureus RN4220 wild type/DeltatarO growth, OD600, 18 h, hits give low values, screened at 18.75 µg/mL (by protocol).
For `CCc1nnc(NC(=O)CSc2nc3c([nH]c4ccccc43)c(=O)n2-c2cc(C)cc(C)c2)s1`, the survival was inactive: 87%. As to `O=C(NCCc1ccccc1)c1ccc2c(c1)N(Cc1ccccc1Cl)C(=O)c1ccccc1S2`, the survival was inactive: 94%.

In the case of `CC(C)NC(=O)Nc1ccc2c(c1)N(C)C(=O)c1ccccc1S2`, the survival was inactive: 117%. Next, `COc1ccc(-c2nc3scc(CCNS(=O)(=O)c4ccc(F)cc4F)n3n2)cc1OC`: inactive: 72%. Then `CCOC(=O)c1cccc(NC(=O)CSc2ncc3c(n2)-c2ccccc2N(C)S3(=O)=O)c1`, with inactive: 55%. Then `COc1ccccc1CNC(=O)C(Cc1ccccc1)NS(=O)(=O)c1ccc2c(c1)oc(=O)n2C` (stereo unspecified), with inactive: 63%; and `CCOc1ccc(CC(=O)Nc2ccc3nc(N4CCCCC4)cc(C)c3c2)cc1OCC`, with inactive: 92%; and `COc1ccc(Cl)cc1NC(=O)CCc1nc(-c2ccccc2F)no1`, with active: 20%. For the molecule `O=C(Cn1c(=O)n(Cc2ccc3c(c2)OCO3)c(=O)c2ccccc21)Nc1cccc(Cl)c1`, the survival is inactive: 65%.

As for `CC1S/C(=N\C(=O)Nc2ccc(Cl)cc2)NC1=O` (stereo unspecified), the survival is inactive: 91%. Next, `Cc1c(C(=O)N2CCCC2)oc2c1-c1nn(CC(=O)NCc3cccc(Br)c3)cc1CC2`: inactive: 75%; `Clc1cccc(CNc2ncnc3c2nc2n3CCCC2)c1`: inactive: 88%; `COc1ccc(-n2ncc3c(N4CCN(c5cccc(C)c5)C(C)C4)ncnc32)cc1` (stereo unspecified): inactive: 79%. Next, `Cc1nnc(SCc2cc(=O)n3c(C)cccc3n2)s1`: inactive: 91%. Then `O=C(C1CCC(CNS(=O)(=O)c2ccc(Br)s2)CC1)N1CCN(c2ccccc2)CC1` (stereo unspecified), with inactive: 78%; and `CCOc1ccc(Cn2c(=O)oc3ccccc32)cc1`, with inactive: 117%.

For the molecule `Cc1ccc(-c2noc(COc3ccc(Br)c(C)c3)n2)cc1`, the survival is inactive: 130%.

Take `COc1ccc(CNC(=O)C2=C(C(=O)O)CCCC2)cc1`: the survival is inactive: 77%. Next, `COc1cccc(N2CC(NC(=O)c3ccc(S(=O)(=O)N4CCCC4)cc3)CC2=O)c1` (stereo unspecified): inactive: 75%; `O=C(NC1CCCC1)c1c[nH]c2ccc(S(=O)(=O)Nc3cccc(C(F)(F)F)c3)cc2c1=O`: active: 16%; `CCN(c1ccccc1)S(=O)(=O)c1nnc(NC(=O)COc2ccc(OC)cc2)s1`: inactive: 55%. Then `CCOC(=O)c1c(C)oc2nc(C)nc(NCC3CCN(Cc4ccc(Cl)cc4)CC3)c12`, with inactive: 94%. `CC(=O)OCC#CCSc1nnc(-c2cccc(Br)c2)o1`: the survival is inactive: 46%. Consider `COc1ccc(-c2nc3n(n2)C(c2ccc(OC)cc2)C(C(=O)Nc2cccnc2)=C(C)N3)cc1` (stereo unspecified), for which the survival is inactive: 89%.

Take `CCOC(=O)c1[nH]c(C)c(CCC(=O)N2CCN(c3ccccc3)CC2)c1C`: the survival was inactive: 86%.

As for `COC(=O)C1C(=O)C2=C(CC1C)Nc1ccccc1NC2c1ccc(N(C)C)cc1` (stereo unspecified), the survival was inactive: 79%. `OC1(c2ccccc2F)CCN(CCN2CCCCC2)CC1`: the survival was inactive: 99%. Then `Cc1ccc(-n2nnc3c(sc4nc(C)c(C)cc43)c2=O)cc1Cl`, with inactive: 86%; and `COc1ccc(CSc2nc3ncccc3[nH]2)cc1`, with inactive: 87%; and `Cc1ccc(C)c(NC(=O)C2CCCN(S(=O)(=O)c3c(C)noc3/C=C/N(C)C)C2)c1` (stereo unspecified), with inactive: 111%. Then `Cn1c(=O)oc2cc(S(=O)(=O)CCC(=O)NCc3ccccc3)ccc21`, with inactive: 77%; and `CCOc1ccc(N(C)S(=O)(=O)c2ccc3c(c2)C(C)(C)C(=O)N3C)cc1`, with inactive: 83%; and `CCOc1ccc(N2CC(c3nc(-c4cc(OC)c(OC)c(OC)c4)no3)CC2=O)cc1` (stereo unspecified), with inactive: 102%. Regarding `Cc1nn(CC(=O)NCCc2ccc(Cl)cc2)c(=O)c2cc3cc(F)ccc3n12`, the survival was inactive: 76%. Then `CCn1c(SCc2ccccc2)nnc1-c1cccnc1`, with inactive: 75%. Next, `Cc1ccc(NC(=O)CCc2nnc3n(CC(C)C)c(=O)c4ccccc4n23)cc1C`: inactive: 92%; `Cc1ccc(-n2nc3c(N4CCC(C(=O)N5CCCCC5)CC4)nnc(C)c3c2C)cc1`: inactive: 85%; `Cc1cc(N2CCCC(O)C2)nc(C)n1` (stereo unspecified): inactive: 100%. Turning to `COc1ccc(CNC(=O)Cn2nc(C)c3nn(-c4ccc(Cl)cc4)c(C)c3c2=O)cc1`, the survival was inactive: 95%. Next, `CCCN1C(=O)C(Cc2nc3ccccc3c(=O)n2CC)c2ccccc21` (stereo unspecified): inactive: 84%; `CCCc1cc(N2CCN(c3cc(Cl)ccc3C)CC2)n2cnnc2n1`: active: 30%; `COc1ccc(-c2cc(NCc3ccc(F)cc3)n3cnnc3n2)cc1`: inactive: 61%. Next, `Cc1c(Cl)cccc1N=C1NC(=O)CS1`: inactive: 99%; `Cc1cc(OCC(=O)NCC2(N3CCN(C)CC3)CCCCC2)cc(C)c1Cl`: inactive: 69%; `O=C(Cc1ccccc1)Nc1sc2c(c1C(=O)Nc1ccccc1Cl)CCC2`: active: 34%. Next, `COc1ccc(NC(=O)Cn2c(=O)n(-c3ccccc3)c(=O)c3c4c(sc32)CCCC4)cc1`: inactive: 98%; `c1ccc2c(c1)oc1c(NC3CCCC3)ncnc12`: inactive: 101%; `Cc1cc(C)cc(Nc2cc(-c3ccccc3)nc(C)n2)c1`: active: 8%.

For `COC(=O)c1c(NC(=O)c2cc3nc(-c4ccc(OC)cc4)cc(C(F)(F)F)n3n2)sc2c1CCCC2`, the survival was inactive: 78%. Next, `CCCOc1ccc(N2CC(C(=O)Nc3cccc(Cl)c3Cl)CC2=O)cc1` (stereo unspecified): inactive: 145%; `Cc1ccc2oc(C(=O)Nc3c(C(=O)Nc4ccccc4)oc4ccccc34)cc(=O)c2c1`: inactive: 73%; `O=S(=O)(c1ccccc1)c1nnn2c1nc(NCc1cccs1)c1sccc12`: inactive: 87%. Then `Cc1ccc(NC(=O)CCn2cccn2)cc1Cl`, with inactive: 87%; and `CCOc1ccc(CCNC(=O)CN2C(=O)COc3ccc(S(=O)(=O)N4CCC(C)CC4)cc32)cc1`, with inactive: 56%. With `C=CCn1c(SC)nc2c1c(=O)[nH]c(=O)n2C`, the survival was inactive: 94%. Then `O=C1NC(=O)C2C3c4ccccc4C(c4ccccc43)C12` (stereo unspecified), with inactive: 98%; and `COc1ccc(-n2nnnc2SCSc2nnnn2-c2ccc(OC)cc2)cc1`, with inactive: 79%; and `CN(C(=O)c1cc(-c2ccccc2)on1)C1CCCCC1`, with inactive: 91%. Next, `CCOc1ccccc1NC(=O)C(Cc1ccccc1)NS(=O)(=O)c1ccc2c(c1)oc(=O)n2C` (stereo unspecified): inactive: 97%. For `COc1ccc(-c2cc3nc(C)c(CCC(=O)N4CCN(c5cccc(Cl)c5)CC4)c(C)n3n2)c(OC)c1`, the survival was inactive: 62%.

On to `O=C(NCc1cccs1)c1ccc2c(c1)N(Cc1ccccc1Cl)C(=O)c1ccccc1S2`, for which the survival was inactive: 84%. Next, `COc1cccc(CNC(=O)C2CCN(c3ncccn3)CC2)c1`: inactive: 63%; `O=C(CN1C=NS(=O)(=O)c2ccccc21)Nc1ccc(F)cc1`: inactive: 87%; `COc1ccc(-c2cc(C(=O)OCC(=O)c3ccc(C)cc3)c3cccc(Cl)c3n2)cc1`: inactive: 65%. Next, `Cc1ccccc1-c1ncnn1-c1sc2c(c1C#N)CCCCC2`: inactive: 72%; `CC(C)Cn1c(=O)c2ccccc2n2c(CCC(=O)NCc3ccccc3Cl)nnc12`: inactive: 90%; `COc1ccc(CCC(=O)NC2CC(=O)N(c3ccc(C)cc3)C2)cc1` (stereo unspecified): inactive: 95%. Then `COc1ccc2oc(=O)cc(CN3CCN(c4ccc(F)cc4)CC3)c2c1`, with inactive: 61%; and `CCCCNC(=O)C(CC)Sc1nnc(-c2cccc(F)c2)c(-c2cccc(F)c2)n1` (stereo unspecified), with inactive: 79%. Turning to `Cc1cccc(C(=O)Nc2ccc(-c3nc4ccccc4s3)cc2Cl)c1`, the survival is inactive: 75%. Next, `Cc1cc(C)cc(N2CC(c3nc(-c4ccccc4C)no3)CC2=O)c1` (stereo unspecified): inactive: 101%; `CC(=O)Nc1c(C)nn(-c2ccccc2)c1N1CCC(C(=O)NCc2ccc(Cl)cc2)CC1`: inactive: 72%; `Cc1nc2c(C(=O)NCCc3ccc(Cl)cc3)cnn2c(C)c1Cc1c(F)cccc1Cl`: inactive: 75%. Next, `CCOC(=O)c1ccc(NC(=O)CN(c2ccc(C)cc2)S(=O)(=O)c2c(C)noc2C)cc1`: inactive: 101%; `Cc1cccc(NC(=O)Cn2c(=O)n(-c3ccccc3Cl)c(=O)c3c(C)c(C(=O)N(C)C)sc32)c1`: inactive: 87%. With `CCCCN(CCCC)C(=O)CN(C)S(=O)(=O)c1ccc2c(c1)c(=O)n(C)c(=O)n2C`, the survival was inactive: 132%. Next, `CC(Nc1ccc(-c2nc(-c3ccncc3)no2)cc1[N+](=O)[O-])c1ccccc1` (stereo unspecified): active: 42%. Then `O=C(NCc1ccccc1Br)c1ccc2nc(N3CCCCC3)sc2c1`, with inactive: 94%. On to `Cc1sc2c(c1C)c(=O)n(CCc1ccccc1)c(=O)n2Cc1cccc(F)c1`, for which the survival was active: 16%. Consider `COCCNC(=O)Cn1cc(/C=C(\C#N)C(N)=O)c2ccccc21`, for which the survival was inactive: 75%. Take `O=C(Nc1cc(F)ccc1F)C1CCN(c2nc3ccccc3n3cccc23)CC1`: the survival was inactive: 66%.

As to `Cc1ccc(-c2c(CN3CCN(c4cccc(C)c4)C(C)C3)csc2C)cc1` (stereo unspecified), the survival is inactive: 75%. Next, `Cc1ccc2onc(CC(=O)N3CCN(c4ccc(F)cc4)CC3)c2c1`: active: 41%. For `CC(C)CC(=O)N1c2nc(C(C)C)nn2C2(CCCCC2)[C@@H]2CCCC[C@@H]21`, the survival is inactive: 79%.

On to `COc1ccc(CCNC(=O)c2ccc(OC)cc2)cc1`, for which the survival was inactive: 86%. Turning to `COc1ccc(C(=O)Nc2ccccc2C(=O)NC(C(=O)O)C(C)C)cc1` (stereo unspecified), the survival was inactive: 84%. Consider `Cc1ccccc1S(=O)Cc1ccc(C(=O)N2CCN(c3cccc(C)c3C)CC2)o1` (stereo unspecified), for which the survival was inactive: 61%.

Turning to `COc1cc2nc(C3CCC3)n(N)c(=O)c2cc1OC`, the survival is inactive: 75%. Then `COc1ccc(NC(=O)Cn2nnc(C(=O)NCCc3ccccc3)c2N)cc1`, with inactive: 98%; and `CC(=O)c1cccc(NC(=O)C(C)n2c(=O)cc(C)c3c(C)nn(-c4ccccc4)c32)c1` (stereo unspecified), with inactive: 79%.

In the case of `COc1ccc(CCNC(=O)c2ccc(Nc3nc4ccccc4n4nnnc34)cc2)cc1OC`, the survival is inactive: 71%.
